Over roughly 33,000 sequences, “E-score (-0.5 to 0.5)” has its median near -0.056; the highest 2% begin near 0.38. Some of the results follow.
Target: Stb4 (UniProt P50104)
Test: PBM E-score (8-mer binding enrichment) (E-score (-0.5 to 0.5)); higher = stronger / more preferred TF binding; most listed sequences are background and not binding sites
Details: protein concentration: 200 nM; construct: GST-DNA-binding domain
Method in brief: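 Full-length yeast transcription factors or their DNA-binding domains, GST-tagged and expressed with PURExpress, were applied at about 100-200 nM to universal all-10-mer Agilent arrays. These arrays had been made double-stranded by primer extension on fresh or once-stripped slides. Detection used fluorescent anti-GST, normalisation used masliner, and E-scores for ungapped eight-base words pooled with reverse complements came from the Universal PBM Analysis Suite.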

Compared with GAGACGTA, TCTGAGCA is lower in “PBM E-score” value: -0.098 for the first, -0.215 for the second.

First: ACCCTATC
Second: ATTTGGAG
The “PBM E-score” value of the first is lower: -0.0313 for the first, 0.0481 for the second.

Compared with CGACAGGA, AAGCTTAG is lower in “PBM E-score” value: 0.0828 for the first, -0.14 for the second.

Compared with ACCGATCG, AGTCATAT is lower in “PBM E-score” value: 0.187 for the first, -0.0966 for the second.

First: GTCAGCCA
Second: ACACTACC
The “PBM E-score” value of the first is lower: -0.262 for the first, 0.012 for the second.

First: AGTGCTAA
Second: TACCTCCA
The “PBM E-score” value of the first is higher: 0.0406 for the first, -0.282 for the second.

Compared with GCGCGGTA, AGGGATTG is lower in “PBM E-score” value: 0.148 for the first, -0.135 for the second.

Going from CCCCTACG to CCAGCTTC, the “PBM E-score” value rises from -0.192 to 0.00389.

First: CGCACTAC
Second: CAAGGATA
The “PBM E-score” value of the first is higher: -0.0218 for the first, -0.0878 for the second.

Compared with ACCACTTG, CACGGTAG is higher in “PBM E-score” value: -0.124 for the first, -0.033 for the second.

Compared with GTCGTTAA, AGCCCCTC is higher in “PBM E-score” value: -0.0489 for the first, -0.029 for the second.

Compared with CCCAAAAC, CATTATGA is higher in “PBM E-score” value: -0.137 for the first, -0.136 for the second.

First: CACTAGTG
Second: AGACGGGG
The “PBM E-score” value of the first is lower: -0.167 for the first, 0.101 for the second.

First: CTGAATAA
Second: TAATTATA
The “PBM E-score” value of the first is lower: -0.0285 for the first, 0.124 for the second.

Going from GGCGAAGA to GAGTATGA, the “PBM E-score” value rises from -0.0368 to 0.125.

Going from ACTATTGA to TCCGATAA, the “PBM E-score” value rises from -0.145 to 0.366.

Going from AGTGGATA to GACGGATA, the “PBM E-score” value rises from 0.044 to 0.385.

Going from ATCGCTTA to TGCACTAA, the “PBM E-score” value rises from -0.262 to -0.112.

First: CGGGGGAG
Second: AGATTCGG
The “PBM E-score” value of the first is lower: 0.113 for the first, 0.378 for the second.

First: AGCACATC
Second: CGAAATAG
The “PBM E-score” value of the first is lower: 0.0597 for the first, 0.0973 for the second.

Compared with CTCGAAGC, ACAAGACC is higher in “PBM E-score” value: -0.132 for the first, 0.073 for the second.

First: AAGTAGAA
Second: ACCAGGAG
The “PBM E-score” value of the first is lower: -0.165 for the first, -0.119 for the second.

First: TCTGCGCA
Second: CTCATAAG
The “PBM E-score” value of the first is higher: -0.089 for the first, -0.202 for the second.

Going from AGAGGTAC to CATCCCCC, the “PBM E-score” value falls from -0.0427 to -0.102.

Compared with CGTCCGAC, GACGAAGC is lower in “PBM E-score” value: 0.147 for the first, -0.142 for the second.

Going from GGAACGAC to CTAATAGA, the “PBM E-score” value rises from 0.0694 to 0.113.

Going from GCCGCGAA to ATATAGTA, the “PBM E-score” value falls from 0.0415 to -0.208.

Compared with ACTTGAGC, GATTTTAC is higher in “PBM E-score” value: -0.258 for the first, 0.0329 for the second.

First: ACATGAGT
Second: CCTATATC
The “PBM E-score” value of the first is lower: -0.134 for the first, -0.0301 for the second.

First: AATTCCTC
Second: GTCGTGGA
The “PBM E-score” value of the first is higher: 0.0334 for the first, -0.135 for the second.

Going from ACCAAGGA to ATCGGGGC, the “PBM E-score” value rises from 0.00373 to 0.147.

Going from ACTCTCCC to AATAGACT, the “PBM E-score” value falls from 0.129 to -0.242.

Going from ATAACCCC to CCGTGTAC, the “PBM E-score” value rises from 0.0131 to 0.119.

Compared with CAGTACTA, CTTCCATC is higher in “PBM E-score” value: -0.186 for the first, 0.0979 for the second.

Compared with ATCAGTTG, GATCTTGC is higher in “PBM E-score” value: -0.275 for the first, 0.0905 for the second.

First: CGACCAGA
Second: ATCGCACG
The “PBM E-score” value of the first is higher: -0.00112 for the first, -0.22 for the second.

Going from GAGCGATC to TCGGCAAA, the “PBM E-score” value rises from -0.0677 to 0.41.

First: AAGCGCGA
Second: GACATAGC
The “PBM E-score” value of the first is higher: -0.072 for the first, -0.0829 for the second.

Compared with AGGAGACT, AACGTTGG is higher in “PBM E-score” value: -0.284 for the first, 0.00161 for the second.

Compared with CACGCTCA, ATGTGCGA is lower in “PBM E-score” value: -0.138 for the first, -0.173 for the second.

Going from CGTGCGCC to ATTGGTCC, the “PBM E-score” value rises from 0.0102 to 0.0162.

First: CACCAAGA
Second: ATGGCGGA
The “PBM E-score” value of the first is lower: -0.155 for the first, 0.243 for the second.

First: GCGGATAC
Second: CTCCACAA
The “PBM E-score” value of the first is higher: 0.367 for the first, -0.209 for the second.

Going from CCGAACGG to GGGTAGGA, the “PBM E-score” value falls from 0.413 to 0.163.

Compared with CTAAAGGA, ATTTTTTG is higher in “PBM E-score” value: -0.00185 for the first, 0.0376 for the second.

First: GCCCAAAA
Second: AGTGGCAA
The “PBM E-score” value of the first is higher: -0.115 for the first, -0.166 for the second.

Compared with ATAAGTCG, AACCCTCC is higher in “PBM E-score” value: 0.0995 for the first, 0.167 for the second.

Compared with AAAGAGCT, AGTTGAAT is higher in “PBM E-score” value: -0.128 for the first, -0.0296 for the second.

First: CAGCTCGC
Second: ATGGACTG
The “PBM E-score” value of the first is higher: -0.13 for the first, -0.212 for the second.

Compared with CTGAAAGC, AATTTCTC is higher in “PBM E-score” value: -0.0455 for the first, 0.0433 for the second.

Going from TCCACCAA to AACCAAGA, the “PBM E-score” value falls from -0.0554 to -0.0962.

Going from AAGGGATA to CGACAACC, the “PBM E-score” value rises from -0.287 to 0.0295.

Going from GCAAGCGA to GAAATTTC, the “PBM E-score” value rises from -0.107 to -0.0674.

Going from AGGACCGC to GAGTACTA, the “PBM E-score” value rises from -0.0222 to 0.00964.

Going from CGACTACA to AGCTATAG, the “PBM E-score” value falls from -0.121 to -0.241.

Compared with AGCAAAGA, GGGGGTAC is higher in “PBM E-score” value: -0.182 for the first, -0.0768 for the second.

Compared with ACGTCTTG, TATCCACA is higher in “PBM E-score” value: -0.208 for the first, -0.184 for the second.

First: CTATGGAC
Second: ATTGCTGG
The “PBM E-score” value of the first is higher: -0.171 for the first, -0.188 for the second.

First: AGTTTCCA
Second: GATTTATA
The “PBM E-score” value of the first is lower: -0.103 for the first, 0.0503 for the second.

Going from CGGGCTGC to CTGGCTAC, the “PBM E-score” value falls from 0.221 to -0.0546.

First: CACATATG
Second: ACAATCCT
The “PBM E-score” value of the first is lower: -0.435 for the first, -0.187 for the second.

First: ATGTGTCA
Second: AACCCTGC
The “PBM E-score” value of the first is higher: -0.129 for the first, -0.174 for the second.

Going from CGTAGCTA to GTACCTAA, the “PBM E-score” value rises from -0.281 to -0.246.

First: AACTCTGG
Second: ACCCGCCC
The “PBM E-score” value of the first is lower: -0.123 for the first, 0.351 for the second.

Going from AATAATCC to AAACGTTG, the “PBM E-score” value falls from 0.147 to -0.135.

Going from CCCGGGTA to GACTCCTA, the “PBM E-score” value falls from 0.407 to -0.227.

Compared with AGCGTATG, AGCATCGC is lower in “PBM E-score” value: -0.00737 for the first, -0.145 for the second.

Going from AACGACTT to CTTAGAAG, the “PBM E-score” value falls from -0.0958 to -0.29.

Going from CATTCTAC to CAGTCATG, the “PBM E-score” value falls from -0.0963 to -0.203.

Going from CAATACTA to AGCAATAG, the “PBM E-score” value rises from -0.0633 to -0.00744.

Compared with GTTCCTCA, CGGCTTAA is higher in “PBM E-score” value: 0.00933 for the first, 0.359 for the second.

First: ACCGTGCG
Second: AACATACA
The “PBM E-score” value of the first is higher: 0.00112 for the first, -0.0188 for the second.

First: AGAGGCTA
Second: GTAGGCAA
The “PBM E-score” value of the first is higher: -0.17 for the first, -0.206 for the second.

First: ACGTCGTG
Second: GATCTACC
The “PBM E-score” value of the first is lower: -0.119 for the first, 0.0755 for the second.

Compared with CCCCACAG, GATAGCGA is higher in “PBM E-score” value: -0.332 for the first, -0.0238 for the second.

Going from CCTGTGCC to CTGGTCCA, the “PBM E-score” value falls from -0.00035 to -0.0862.

Compared with ATACCGCA, CCAGCTAG is lower in “PBM E-score” value: 0.256 for the first, -0.355 for the second.

Compared with CTCAGGCA, AGAAGAAG is higher in “PBM E-score” value: -0.0232 for the first, 0.00552 for the second.

Going from CAGTCTCG to CTCTACTA, the “PBM E-score” value falls from 0.063 to -0.146.

Compared with ATACAGGG, ATACGCGA is lower in “PBM E-score” value: 0.0358 for the first, -0.207 for the second.

First: CCGATGCA
Second: AATACGAT
The “PBM E-score” value of the first is higher: 0.339 for the first, -0.067 for the second.

Going from GTTGGCGA to CCGGATCA, the “PBM E-score” value rises from -0.0832 to 0.383.

Compared with AAGCCTGA, GTACTAGA is higher in “PBM E-score” value: -0.234 for the first, -0.0915 for the second.

Compared with ACTTACAG, CGCGGTCA is higher in “PBM E-score” value: -0.193 for the first, 0.0397 for the second.

First: GAACCTAC
Second: ACATCGGG
The “PBM E-score” value of the first is lower: 0.0506 for the first, 0.276 for the second.

Going from ACTTAGTA to ATACAGAG, the “PBM E-score” value falls from 0.0102 to -0.267.
